Measurements as given in PubChem BioAssay AID651820 (National Center for Advancing Translational Sciences (NCATS), 2012).
The campaign covered roughly 340,000 compounds. About 12,000 (3.5%) were called active. The shares of active, inactive and inconclusive entries below differ from those in the screen. Calls come from the whole dose curve; as a rule, active = well fitted inhibition curve with a large enough effect; inconclusive = small, poorly fitted or top-dose-only effect, or another doubt; inactive = no such curve, though single readings can be large or run the other way. Potencies of inconclusive entries are left out as doubtful fits.

Assay: qHTS Assay for Inhibitors of Hepatitis C Virus (HCV)
Conditions: Huh7.5.1 HCVcc-Cre (HCVcc is cell-culture hepatitis C virus) infection, luciferase reporter, 44 h; activity change, negative = inhibition: at 41.8 µM (top of the series) unless noted
Summary of the method: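 After 44 h co-culture of compound, cells and HCVcc-Cre (~0.5 moi), substrate is added for 15 min at room temperature and luciferase measured over 15 sec. Cells were seeded at 1,000/well and pre-cultured 4 h.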
% is set by controls: 0 for no effect and ±100 for the full control effect; potency is the fitted concentration of half-maximal effect; tags give direction and shape of the fitted curve.

Row | Structure (SMILES) | Potency | activity change, negative = inhibition
1 | CC(=NCCCn1ccnc1)c1c(-c2ccccc2)[nH]n(-c2nc3ccccc3s2)c1=O | inconclusive [inhibitor, partial curve, poor fit] | 
2 | COc1ccc(C2CC(c3cccs3)=NN2c2nc(C)c(C(C)=O)s2)cc1OC (configuration not stated) | inconclusive [inhibitor, single point] | 
3 | c1ccc2c(NCC3CCCO3)nc(-c3ccncc3)nc2c1 (configuration not stated) | active: 10 µM | 
4 | COC(=O)CN1C2=NCCCN2c2ccccc21 |  | inactive: 11.6%
5 | CC(=O)C1=C(C)NC(SCc2ccc(C#N)cc2)=C(C#N)C1c1ccco1 (configuration not stated) | inconclusive [inhibitor, single point] | 
6 | Cc1cc(N2CCN(C)CC2)nc2ccc(NC(=O)c3ccc4c(c3)OCO4)cc12 | active: 10 µM | 
7 | COc1ccc(/C=C/C(=O)c2cc(F)ccc2OC(=O)c2ccccc2)cc1OC | inconclusive [inhibitor, single point] | 
8 | COc1ccc(C(=O)Nc2ccc(C)c(S(=O)(=O)N3CCCCCC3)c2)cc1 | active: 31.6 µM | 
9 | CCC(C)[C@H](NC(=O)N1CC(=O)Nc2ccccc21)C(=O)N[C@@H](C(=O)O)c1ccccc1 (some centres not stated) |  | inactive: 22.8%
10 | Cc1ccc(-c2nnc(CSc3nnc(COc4ccccc4)n3-c3ccccc3)o2)cc1 | inconclusive [inhibitor, single point] | 
11 | COc1ccc(CCNC(=O)CN2C(=O)NC(Cc3c[nH]c4ccccc34)C2=O)cc1 (configuration not stated) |  | inactive: 11.6%
12 | O=C(Nc1ccc(N2CCCC2)c(Cl)c1)c1ccc([N+](=O)[O-])o1 | inconclusive [inhibitor, single point] | 
13 | COc1cccc(C(=O)OCC(=O)c2[nH]c(C)c(C(C)=O)c2C)c1 | inconclusive [inhibitor, single point] | 
14 | COc1cccc(-c2nc(CSCC(=O)N3CCc4ccccc43)c(C)o2)c1 | inconclusive [inhibitor, partial curve] | 
15 | CN(CCC#N)S(=O)(=O)c1ccc2[nH]cc(C(=O)NCCc3ccccc3)c(=O)c2c1 | inconclusive [inhibitor, single point] | 
16 | O=C(Nc1cccc(F)c1)c1cccc2c1C(=O)N(C1CCCCC1)C2 | inconclusive [inhibitor, single point] | 
17 | O=C1c2ccccc2C(=O)N1Cc1cnc(N2CCN(c3ccccc3)CC2)s1 |  | inactive: -5.15%
18 | Cc1ccc(/C=N/N=C/c2ccc(C)s2)s1 | inconclusive [inhibitor, single point] | 
19 | CC(C)n1cc(CN2CCC(C(=O)Nc3cccc(-c4cccc(Cl)c4)c3)CC2)cn1 | inconclusive [inhibitor, partial curve] | 
20 | Cc1ccccc1Nc1nnc(SCc2cc([N+](=O)[O-])cc3c2OCOC3)s1 | inconclusive [inhibitor, full curve] | 
21 | Cc1cccc(OCCCC(=O)NCc2ccco2)c1 |  | inactive: 15.3%
22 | Cc1c(C(=O)N2CCCCC2)c(S(=O)(=O)NCc2ccc(F)cc2)c(C)n1C |  | inactive: 12.8%
23 | COc1cc(NC(=O)COc2cccc3c2OC(C)(C)C3)cc(OC)c1OC | inconclusive [inhibitor, partial curve, poor fit] | 
24 | Cc1cc(N2CCN(c3ccc(F)cc3)CC2)nc(-c2ccccc2)n1 | active: 10 µM | 

Row | Structure (SMILES) | Potency | activity change, negative = inhibition
25 | CC(=O)c1ccc(NS(=O)(=O)c2ccc(N)cc2)cc1 | inconclusive [inhibitor, partial curve] | 
26 | O=C(C1CCN(S(=O)(=O)c2ccccc2F)CC1)N1CCN(Cc2ccc3c(c2)OCO3)CC1 | active: 12.6 µM | 
27 | CCc1cc(C(=O)Nc2nc(-c3ccccn3)cs2)sc1C | inconclusive [inhibitor, single point] | 
28 | COc1ccc(O)c(/C=C2/SC(=S)N(Cc3ccccc3)C2=O)c1 |  | inactive: 14.5%
29 | CC1(C)CC(=O)C=C(c2cccc3c2Oc2ccccc2S3)C1 | inconclusive [inhibitor, single point] | 
30 | CCN(CC)S(=O)(=O)c1ccc(Cl)c(C(=O)NC2CCN(Cc3ccccc3)CC2)c1 | inconclusive [inhibitor, single point] | 
31 | CC(C)OCC(O)CN1CCN(C(c2ccccc2)c2ccccc2)CC1 (configuration not stated) | inconclusive [inhibitor, full curve] | 
32 | Cc1ccc2nc(-c3ccc(O)c(O)c3)cn2c1 |  | inactive: -11.6%
33 | Cc1ccc(C)c(C(=O)COC(=O)CN2C(=O)C3C4CCC(C4)C3C2=O)c1 (configuration not stated) |  | inactive: 11.7%
34 | COc1ccc(C(=O)Nc2cccc3nc(C)ccc23)cc1OC |  | inactive: 0.622%
35 | COc1ccc(NC(=O)N2CCCC(c3nc(-c4ccc(OC)cc4)no3)C2)cc1 (configuration not stated) | active: 22.4 µM | 
36 | O=C(c1cc2ccccc2o1)N(C1CC1)C1(C(=O)Nc2ccccc2)CCCC1 | inconclusive [inhibitor, single point] | 
37 | O=S(=O)(CC(CN1CCCCC1)N1CCCCC1)c1ccccc1 (configuration not stated) | inconclusive [inhibitor, single point] | 
38 | CCN(C(=O)COc1cc(=O)n(CC)c2ccccc12)c1cccc(Cl)c1 | inconclusive [inhibitor, partial curve] | 
39 | COC(=O)C12CCC(C)(c3nc4ccccc4nc31)C2(C)C (configuration not stated) |  | inactive: 9.92%
40 | COc1ccc(C(=O)Nc2ncc3c(n2)CC(C)CC3=O)cc1 (configuration not stated) |  | inactive: 8.2%
41 | Cc1ccc(N2CC(C(N)=O)CC2=O)cc1 (configuration not stated) |  | inactive: 9.8%
42 | C=CCCN(C(CC(C)C)C(=O)OC)S(=O)(=O)c1cc(Br)ccc1Br (configuration not stated) |  | inactive: 5.62%
43 | CC(CNCC1CCCO1)COc1cccc2ccccc12 (configuration not stated) | inconclusive [inhibitor, single point] | 
44 | COc1cc2cnc(-c3ccccc3F)cc2cc1OC | inconclusive [inhibitor, partial curve] | 
45 | CC1=C/C(=N\N=C2\NC(=O)C(CC(=O)Nc3ccccc3F)S2)CC(C)(C)C1 (configuration not stated) |  | inactive: 6.75%
46 | COc1ccc(C(=O)C2CCCN(C(=O)c3noc4c3CCCC4)C2)c(C)c1 (configuration not stated) | inconclusive [inhibitor, single point] | 
47 | CCn1c(=N)n(CC(=O)c2cccc(OC)c2)c2ccccc21 | inconclusive [inhibitor, single point] | 
48 | CC(=O)c1cc(C#N)c(NCc2cc(-c3ccccc3)no2)nc1C | inconclusive [inhibitor, partial curve] | 

Row | Structure (SMILES) | Potency | activity change, negative = inhibition
49 | CCN(CC(=O)Nc1c(C(=O)OC)[nH]c2ccc(Cl)cc12)c1ccc2c(c1)OCO2 | active: 11.2 µM | 
50 | CCOc1ccc(CCNC(=O)c2cc3ccccn3n2)cc1OCC | active: 12.6 µM | 
51 | COc1ccc2ncc(S(=O)(=O)c3ccccc3)c(N3CCC4(CC3)OCCO4)c2c1 |  | inactive: -12.7%
52 | CCOC(=O)Nc1cccnc1Sc1ccc(Cl)cc1 |  | inactive: 1.42%
53 | C=CCc1c(C)c(C#N)c2nc3ccccc3n2c1N1CCCCC1 | inconclusive [inhibitor, single point] | 
54 | COc1ccccc1OCC(=O)NN=C(Cc1ccccc1)Cc1ccccc1 | inconclusive [inhibitor, single point] | 
55 | Cc1ccc2nc(NCc3ccccc3)c(C=NCc3ccccc3)c(=O)n2c1 | inconclusive [inhibitor, partial curve] | 
56 | Oc1ccc(/C=C/c2ccnc3ccccc23)cc1 | active: 8.91 µM | 
57 | C[C@H](CO)N1C[C@H](C)[C@@H](CN(C)C(=O)Nc2ccc(C(F)(F)F)cc2)Oc2c(NS(=O)(=O)c3cn(C)cn3)cccc2C1=O | active: 2.82 µM | 
58 | CCCCN(C)CCNC(=O)C1CCN(S(=O)(=O)c2cccc3nsnc23)CC1 |  | inactive: 2%
59 | COC(=O)C1=C(c2ccc(OCc3ccccc3)cc2)C[C@@H]2CC[C@H]1N2C(=O)NCc1cccc(C(F)(F)F)c1 | active: 12.6 µM | 
60 | COc1cc(OC)cc(-c2nc3ccccc3s2)c1 | inconclusive [inhibitor, single point] | 
61 | COc1cc(NC(=O)C2CCCO2)c(OC)cc1Cl (configuration not stated) |  | inactive: -22.3%
62 | CCOC(=O)C1CCN(C(=O)c2ccc3c(c2)C(=O)N(c2ccccc2C)C3=O)CC1 |  | inactive: 12.7%
63 | CC(C)(C)OC(=O)N1CCC(NC(=O)c2[nH]cnc2C(=O)Nc2ccccc2)CC1 | inconclusive [inhibitor, single point] | 
64 | N#CCCSc1nc(N2CCOCC2)c2c(c1C#N)CCCC2 | inconclusive [inhibitor, single point] | 
65 | O=C1Nc2ccc(Cl)cc2C12Nc1ccccc1-c1nnc(SCc3ccccc3F)nc1O2 (configuration not stated) |  | inactive: -6.91%
66 | O=c1[nH]sc2ccccc12 | inconclusive [inhibitor, single point] | 
67 | CC(Sc1nc(-c2ccccc2)cc(C(F)(F)F)n1)C(=O)N1CCCCC1 (configuration not stated) | inconclusive [inhibitor, partial curve] | 
68 | COc1ccc(C2Nc3ccccc3C(=O)N2NS(=O)(=O)c2ccccc2)cc1 (configuration not stated) | inconclusive [inhibitor, single point] | 
69 | CCCCCOC(=O)Nc1ccc(S(=O)(=O)Nc2cccc([N+](=O)[O-])c2)cc1 | inconclusive [inhibitor, partial curve] | 
70 | COCC(C)NC(=O)c1cc(-c2ccc(OC)c(OC)c2)on1 (configuration not stated) | inconclusive [inhibitor, single point] | 
71 | O=c1ccc(N=Nc2ccccc2)ccc1O | inconclusive [inhibitor, single point] | 
72 | Cc1ccc(C)c(NC(=O)CN(C)C(=O)[C@@H](NC(=O)c2ccc(C(C)(C)C)cc2)C(C)C)c1 | inconclusive [inhibitor, partial curve] | 
